Source: PubChem BioAssay AID1460 (National Center for Advancing Translational Sciences (NCATS), 2008)
Out of some 270,000 compounds screened, about 5,800 (2.1%) were called active. The shares of active, inactive and inconclusive entries below differ from those in the screen. Calls come from the whole dose curve; as a rule, active = well fitted inhibition curve with a large enough effect; inconclusive = small, poorly fitted or top-dose-only effect; inactive = flat fitted curve, though single readings scatter. Potencies beside an inconclusive call are fits to weak or partial responses and may not hold up.

These molecules were tested against Microtubule-associated protein tau (Homo sapiens) (UniProt P10636) (assay: qHTS for Inhibitors of Tau Fibril Formation, Thioflavin T Binding). Settings: recombinant tau K18 P301L, heparin-induced fibrillization, ThT fluorescence; series mostly up to 57.4 µM; activity, negative = inhibition: at the top concentration.
In short: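 Using a mix of unlabeled (15 uM) and Alexa 594-labeled (0.24 uM) tau K18 P301L, heparin-triggered fibrillization over 6 hr at 37 C was scored by ThT fluorescence.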
% is set by controls: 0 for no effect and ±100 for the full control effect; potency is the fitted concentration of half-maximal effect; tags give direction and shape of the fitted curve.
Note: nearly all actives have a fitted effect of over 55% in size.

Sequence of UniProt P10636 (P10636 whole entry, looked up): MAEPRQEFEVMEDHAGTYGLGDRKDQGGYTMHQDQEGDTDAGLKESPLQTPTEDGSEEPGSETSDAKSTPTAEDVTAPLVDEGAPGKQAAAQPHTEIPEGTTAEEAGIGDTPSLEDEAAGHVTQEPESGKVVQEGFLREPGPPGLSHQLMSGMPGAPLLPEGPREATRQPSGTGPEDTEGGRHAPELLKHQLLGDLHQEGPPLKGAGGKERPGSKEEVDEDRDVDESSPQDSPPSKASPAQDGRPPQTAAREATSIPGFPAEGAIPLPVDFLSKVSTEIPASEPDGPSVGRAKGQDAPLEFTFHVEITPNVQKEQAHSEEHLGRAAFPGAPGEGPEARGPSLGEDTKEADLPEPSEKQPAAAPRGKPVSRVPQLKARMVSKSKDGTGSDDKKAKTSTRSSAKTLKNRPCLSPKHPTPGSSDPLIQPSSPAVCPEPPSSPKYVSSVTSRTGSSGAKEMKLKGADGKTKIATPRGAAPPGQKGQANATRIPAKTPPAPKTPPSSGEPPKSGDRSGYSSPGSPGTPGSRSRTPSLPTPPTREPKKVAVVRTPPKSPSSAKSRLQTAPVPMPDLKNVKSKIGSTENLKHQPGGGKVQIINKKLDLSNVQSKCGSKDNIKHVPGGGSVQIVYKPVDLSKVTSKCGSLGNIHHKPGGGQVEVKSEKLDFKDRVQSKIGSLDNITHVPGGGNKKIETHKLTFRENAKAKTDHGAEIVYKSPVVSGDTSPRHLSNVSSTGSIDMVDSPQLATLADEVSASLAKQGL

Structure (SMILES) | Potency | activity, negative = inhibition
COc1cc([N+](=O)[O-])cc2sc(NC(C)=O)nc12 | inconclusive: 28.2 µM [inhibitor, single point] | 
CCCCCC1CC(CC(=O)NC(=S)Nc2ccc([N+](=O)[O-])cc2)C(=O)O1 (stereo unspecified) |  | inactive: -15.7%
Cc1cc(C)n(CC(=O)N/N=C/c2ccccn2)n1 |  | inactive: 13.4%
COc1ccc(CNC(=O)CCc2nc(-c3ccc(C)cc3)no2)c(OC)c1 |  | inactive: -8.69%
Cn1c(SCC(=O)N2CCc3ccccc32)nc2cccnc21 | inconclusive: 39.8 µM [inhibitor, single point] | 
O=C(NC(=S)Nc1ccc(CN2CCCCC2)cc1)c1ccco1 |  | inactive: 1.32%
Cc1sc2ncnc(NCc3ccco3)c2c1C | inconclusive: 15.8 µM [inhibitor, partial curve] | 
CC(=O)c1c(O)cc(=O)n(-c2ccccc2)c1-c1cccc2ccccc12 | inconclusive: 0.282 µM [inhibitor, full curve, poor fit] | 
COCCOC(=O)C1=C(C)NC(=O)NC1c1ccc(-c2cc(Cl)ccc2Cl)o1 (stereo unspecified) |  | inactive: -16.5%
Cc1nnc2sc(-c3ccc(-c4ccc(Cl)c(C(F)(F)F)c4)o3)nn12 | inconclusive: 3.98 µM [inhibitor, partial curve] | 
O=[N+]([O-])/C(C(Cl)=C(Cl)Cl)=C1\Nc2ccccc2O1 | inconclusive: 17.8 µM [inhibitor, partial curve] | 
Cc1ccc(O)c(C(=O)c2cnn(C(=O)COc3ccc(Cl)cc3)c2)c1 | inconclusive: 8.91 µM [inhibitor, partial curve] | 
CC(=O)c1c(C)n(-c2ccc(N(C)C)cc2)c2ccc(OCC(N)=O)cc12 | inconclusive: 15.8 µM [inhibitor, partial curve, poor fit] | 
COC(=O)CSc1ccc2nnc(-c3ccc(OC)c(OC)c3)n2n1 |  | inactive: 1.26%
O=C(c1ccccc1F)N(Cc1nc2ccccc2c(=O)[nH]1)C1CCCC1 |  | inactive: -5.92%
O=C(N/N=C/c1cccs1)C1CC(=O)N(c2ccccc2)C1 (stereo unspecified) | inconclusive: 11.2 µM [inhibitor, partial curve] | 
CCCC(=O)Nc1ccc(C(=O)N2CCCC2)cc1 |  | inactive: -11.7%
CC(=O)Nc1ccc(S(=O)(=O)NC2(C(F)(F)F)NC(=O)N(CCc3ccc(F)cc3)C2=O)cc1 (stereo unspecified) |  | inactive: 4.41%
Cc1cc2cc(C(c3nnnn3C3CCCC3)N(Cc3cccnc3)Cc3ccco3)c(=O)[nH]c2cc1C (stereo unspecified) | inconclusive: 28.2 µM [inhibitor, single point] | 
COC(=O)c1ccc(C23CC4(C2)[C@H](CN(C)[C@@H]4c2ccccc2)C3c2ccc(Cl)nc2)cc1 (stereo partly specified) | inconclusive: 39.8 µM [inhibitor, single point] | 
COc1ccccc1C1CC(=O)Oc2cc3c(cc21)OCO3 (stereo unspecified) | inconclusive: 25.1 µM [inhibitor, partial curve, poor fit] | 
COc1cccc(C(=O)Nc2ccccc2-c2nnc(-c3cccc(OC)c3)o2)c1 | inconclusive: 3.16 µM [inhibitor, full curve] | 
COC(=O)C(c1ccccc1Cl)N1CCc2sccc2C1 (stereo unspecified) | inactive | 
COc1ccccc1NC(=O)Cn1c(=O)n(CCCCCC(=O)NCc2ccccc2)c(=O)c2sccc21 | inconclusive: 39.8 µM [activator, single point] | 

Structure (SMILES) | Potency | activity, negative = inhibition
O=C(O)c1ccc(/C=N/Nc2ccc(S(=O)(=O)N3CCCC3)cc2[N+](=O)[O-])cc1 | inconclusive: 12.6 µM [inhibitor, partial curve] | 
O=C(/C=C/c1cccs1)NC(=S)Nc1ccc(S(=O)(=O)Nc2ccccc2C(F)(F)F)cc1 |  | inactive: 5.39%
COc1ccccc1N1CCN(C(=O)c2cc(C(C)(C)C)oc2C)CC1 | inconclusive: 15.8 µM [inhibitor, partial curve, poor fit] | 
Cc1ccc(CSc2ncnc3ccccc23)cc1 | inconclusive: 28.2 µM [inhibitor, single point] | 
CCOc1ccc(/C=C/c2nc(C#N)c(NCCc3ccccc3)o2)cc1 | inconclusive: 1.41 µM [inhibitor, full curve] | 
CCCCCC(=O)c1cc(CC(C(=O)OC)C(=O)OC)cc2cc(OC)c(OC)cc12 |  | inactive: -17.9% [at 11.5 µM]
Cc1ccc(C2C(C#N)=C(N)Oc3n[nH]c(-c4cccs4)c32)s1 (stereo unspecified) | inconclusive: 17.8 µM [inhibitor, partial curve] | 
O=C(OC1Cc2c(O)cc(O)cc2OC1c1cc(O)c(O)c(O)c1-c1c(C2Oc3cc(O)cc(O)c3CC2O)cc(O)c(O)c1O)c1cc(O)c(O)c(O)c1 (stereo unspecified) | active: 17.8 µM | 
Cc1ccc(SC(CC(=O)c2ccc(C)cc2)C(=O)O)cc1 (stereo unspecified) | inconclusive: 3.16 µM [inhibitor, full curve] | 
C=CCSc1nc2sc3c(c2c(=O)n1CC)CCc1ccccc1-3 | active: 11.2 µM | 
CCOc1ccc(/C=C/C(=O)c2cccs2)cc1 | inconclusive: 15.8 µM [inhibitor, partial curve] | 
CC(C)(C)N(Cc1ccccc1)C(=O)CSc1nnc(CNc2ccc(F)cc2)o1 | inconclusive: 39.8 µM [inhibitor, single point] | 
Cc1ccc(CN2C(=O)c3ccccc3Sc3ccc(C(=O)OCc4ccco4)cc32)cc1 |  | inactive: 1.9%
COc1ccc(Br)cc1CNC(=O)c1ccc2c(c1)N(Cc1ccc(C)cc1)CCS2 |  | inactive: 7.29%
CCOC(=O)c1c(N)sc2c1CCCC2 | inconclusive: 15.8 µM [inhibitor, partial curve] | 
COc1ccc2c(c1)NC(c1cccnc1)=NC(c1ccc(F)cc1)=N2 | inconclusive: 20 µM [inhibitor, partial curve] | 
COc1ccc(/C=C/C(=O)NC(=S)Nc2cc([N+](=O)[O-])ccc2O)cc1OC | active: 1.58 µM | 
O=C(c1ccc(C(F)(F)F)cc1)N1CCC(=O)N(C(COCc2ccc(C(F)(F)F)cc2)Cc2ccccc2)CC1 (stereo unspecified) |  | inactive: 1.47%
COC(=O)c1ccc(-c2ccco2)n1Cc1nc(-c2ccc(OC)c(OC)c2)oc1C | inconclusive: 20 µM [inhibitor, single point] | 
O=C(Nc1nnc(C2CC2)s1)C1Cc2ccccc2CN1C(=O)c1ccco1 (stereo unspecified) | inconclusive: 39.8 µM [inhibitor, single point] | 
O=C(CCCN1C(=O)/C(=C\c2cccs2)SC1=S)NNC(=O)c1ccncc1 |  | inactive: -8.25%
Cc1ccc(-n2nnnc2C(Cl)(Cl)c2nnnn2-c2ccc(C)cc2)cc1 | active: 8.91 µM | 
COc1cc(Cl)cc2c1Sc1ccccc1/C2=C/CCN(C)C | inconclusive: 22.4 µM [inhibitor, single point] | 
COc1ccc(C(=O)N/N=C/c2ccc(OC)c(CSc3ccccn3)c2)cc1 | inconclusive: 15.8 µM [inhibitor, partial curve] | 

Structure (SMILES) | Potency | activity, negative = inhibition
Cn1c(SCC(=O)Nc2nc3ccccc3s2)nnc1-c1ccccc1 | inconclusive: 5.62 µM [inhibitor, partial curve, poor fit] | 
CCOc1ccc(-n2c(=S)sc3c(=O)[nH]c(SCC(=O)C(C)(C)C)nc32)cc1 | inconclusive: 17.8 µM [inhibitor, partial curve] | 
Cc1ccc(C(=O)n2c(=S)nc3ccccn32)cc1 |  | inactive: -24.3%
Cc1ccccc1/C=C/c1nc2ccccc2c(=O)n1Cc1ccccc1 | inconclusive: 20 µM [inhibitor, single point] | 
COC(=O)C1=C(c2ccccc2)c2ccccc2S(=O)(=O)N1CC(=O)Nc1ccccc1Cl |  | inactive: -1.47%
COc1cccc2cc(C(=O)NNC(=O)c3ccc(Br)cc3)c(=O)oc12 | inconclusive: 11.2 µM [inhibitor, partial curve] | 
COc1cccc(C(=O)NC(=S)Nc2ccccc2N2CCCC2)c1 | inconclusive: 22.4 µM [inhibitor, single point] | 
Cc1ccc(C)c(N2CCN(Cc3csc(C)c3)CC2)c1 |  | inactive: -5.34%
O=C(Nc1ccccc1)c1ccc[nH]1 |  | inactive: 3.29%
Cc1cc(C)n(-c2nc3ccccc3nc2NCCc2ccccc2)n1 | inconclusive: 31.6 µM [inhibitor, partial curve, poor fit] | 
Cc1cc(C)nc(NN2C(=O)/C(=C/c3ccc(O)cc3)SC2=S)n1 | inconclusive: 12.6 µM [inhibitor, partial curve] | 
N/C(=N\OC(=O)c1ccc(F)cc1)c1nonc1N |  | inactive: 11.7%
COc1ccc(-n2cnnc2SCC(=O)NC2CCCc3ccccc32)cc1 (stereo unspecified) |  | inactive: 5.94%
CCOc1ccc(-c2cc(-c3nc(-c4cc(OC)c(OC)c(OC)c4)no3)[nH]n2)cc1 | inconclusive: 12.6 µM [inhibitor, partial curve] | 
Cc1ccc(C2CC(c3cccc(Cl)c3)n3nc(N)nc3N2)cc1 (stereo unspecified) | inconclusive: 25.1 µM [inhibitor, single point] | 
COc1ccc(N2C(=O)CC(Sc3n[nH]c(-c4cccc(C)c4)n3)C2=O)cc1 (stereo unspecified) | inconclusive: 15.8 µM [inhibitor, partial curve, poor fit] | 
Cc1ccc(CN(Cc2ccco2)C(=O)COc2ccc(Cl)cc2)o1 |  | inactive: -7.18%
Cc1ccc(C2CC(=O)Oc3cc(C)c(Cl)c(C)c32)cc1 (stereo unspecified) | inconclusive: 39.8 µM [inhibitor, partial curve, poor fit] | 
CCOC(=O)c1cc(-c2ccc(F)cc2)n(CCC(=O)NCCc2ccc(C)cc2)c1C |  | inactive: -14.9%
CCOc1ccc(N=Cc2c(O)c3ccccc3oc2=O)cc1 | inconclusive: 15.8 µM [inhibitor, partial curve] | 
CC(C)c1nc2c(c(=O)n(C)c(=O)n2C)n1C |  | inactive: -7.05%
CCn1c(SCC(=O)NCc2ccco2)nnc1-c1c[nH]c2ccccc12 |  | inactive: -12%
C=C1c2ccccc2O[C@H](C(=O)OCC)C1OC (mixture of isomers) |  | inactive: -12.7% [at 126 µM]
